Among the data in patent US20240368238A1 (DRACOTERPIN BIOMEDICINE, published 2024) are Kd values, retold here.

The target in the assay is T1, IL-2Rβ/γ-Fc heterodimer (IL-2Rβ-Fc-hole + IL-2Rγ-Fc-knob) (UniProt P14784 27-240; P31785 23-262).
T1 construct: Both chains transfected together into HEK293; purified with Protein A and Superdex 200; used as the analyte in the BLI; also called IL-2Rβ/γ heterodimers; not shown: Fc hole; Fc knob
T1 sequence (looked up) 1: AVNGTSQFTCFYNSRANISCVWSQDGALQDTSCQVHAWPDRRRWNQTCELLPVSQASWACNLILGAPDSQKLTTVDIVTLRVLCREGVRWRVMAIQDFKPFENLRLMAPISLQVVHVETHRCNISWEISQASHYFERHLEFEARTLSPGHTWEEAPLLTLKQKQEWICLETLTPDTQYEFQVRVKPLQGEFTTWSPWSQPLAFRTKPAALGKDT
T1 sequence (looked up) 2: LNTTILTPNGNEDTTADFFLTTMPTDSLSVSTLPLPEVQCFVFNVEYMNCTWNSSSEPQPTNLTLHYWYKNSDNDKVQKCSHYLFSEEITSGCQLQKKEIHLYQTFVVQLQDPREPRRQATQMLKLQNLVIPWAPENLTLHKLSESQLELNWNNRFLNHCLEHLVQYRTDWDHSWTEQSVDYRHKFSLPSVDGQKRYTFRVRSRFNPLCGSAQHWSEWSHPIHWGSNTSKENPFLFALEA
Nature of the assay: BLI (Octet RED96e), AR2G sensors, IL-2Rβ/γ-Fc heterodimer as analyte, 1:1 global fit. The protocol:
Experimental data were processed using Data Analysis software 9.0. […] The method of global fitting was applied, i.e., the 6 concentrations were analyzed as a group.

B1: IL-2-10 (IL-2-1 + Fc) (Fc fusion)
chain: APTSSSTKKTQLQLEHLLLDLQMILNGINNGGNPMHGLDGFGMPKKATELKHLQCLEEELKPLEEVLNLAQSKNFHLRPRDLISNINVIVLELKGSETTFMCEYADETATIVEFLNRWITFAQSIISTLT[skipping human IgG1 Fc with changes]
For B1, the Kd worked out at 9.83 nM.

As a reminder, the Kd is the free concentration of one partner at which half of the binding sites on the other are occupied at equilibrium, for simple one-to-one binding.
